Reference: PubChem BioAssay AID1347165 (National Center for Advancing Translational Sciences (NCATS), 2019)
Hit rate of the full screen: of about 220,000 compounds, about 5,700 (2.6%) were called active. The shares of active, inactive and inconclusive entries below differ from those in the screen. Calls come from the whole dose curve; as a rule, active = well fitted inhibition curve with a large enough effect; inconclusive = small, poorly fitted or top-dose-only effect; inactive = no such curve, though single readings can be large or run the other way. Where the call is inconclusive, the potency comes from a doubtful curve fit.

Target: Lysine-specific demethylase 5B (Homo sapiens) (UniProt Q9UGL1)
Test: Primary screen for KDM5B Histone Demethylases FDH-coupled qHTS; note: nearly all actives have a fitted effect of over 70% in size; for activity change, negative = inhibition: 0% is about no effect
Details: FDH-coupled NADH fluorescence (FDH is formaldehyde dehydrogenase); activity change, negative = inhibition: at 57.7 µM (top of the series) unless noted
Procedure, shortened: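 Here, H3K4me3 peptide (12.5 µM in substrate mix) is demethylated by KDM5BΔAP, 200 nM final, after 10 min compound exposure. Formaldehyde product is coupled through FDH (0.25 U/mL in mix) to NADH fluorescence; 30-min ΔRFU feeds dose-response curves.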
Potency is the fitted concentration of half-maximal effect; tags give direction and shape of the fitted curve.

Row | Structure (SMILES) | Potency | activity change, negative = inhibition
1 | Cn1nnnc1NCc1ccc(-c2ccc(Br)cc2)o1 | inconclusive: 35.5 µM [inhibitor, single point] | 
2 | Cc1cccc(-c2noc([C@@H]3C[C@@H](O)CN3Cc3ccccn3)n2)c1 | inactive | 
3 | COc1ccc(-c2nc(CS(=O)CC(=O)NCCN3CCCCC3C)c(C)o2)cc1OC (stereo unspecified) | inconclusive: 20 µM [inhibitor, partial curve, poor fit] | 
4 | COc1ccc(CCOC(=O)Cc2coc3cc(C)c(C)cc23)cc1 | inactive | 
5 | O=C(NC(c1ccccc1)c1ccccc1)c1cc2ccccc2oc1=O | inactive | 
6 | Cc1c(C)c2ccc(OCC(=O)Nc3ccc(CCO)cc3)cc2oc1=O | inconclusive: 22.4 µM [inhibitor, partial curve, poor fit] | 
7 | COc1ccc(C(=O)N2CCC3(CC2)CC2C(=O)NCCN2C3)c(OC)c1 (stereo unspecified) | inconclusive: 20 µM [inhibitor, partial curve, poor fit] | 
8 | COc1ccc(C2Cn3nnc(C(=O)N4CCN(C(=O)Cc5ccccc5Cl)CC4)c3CO2)cc1 (stereo unspecified) | inconclusive: 35.5 µM [inhibitor, partial curve, poor fit] | 
9 | CC(C)c1ccc(CN2CC(CNc3cccnc3)C3(C2)CN(c2ccccc2)C3)cc1 (stereo unspecified) | inconclusive: 28.2 µM [inhibitor, single point] | 
10 | CCC(Oc1ccccc1)C(=O)Nc1nnc(S(=O)(=O)Nc2ccccc2)s1 (stereo unspecified) | inactive | 
11 | COCc1ccc2c(c1)c(OC(C)(C)C(=O)NC(C)C)nn2Cc1cccc(OC)c1 | active: 35.5 µM | 
12 | COc1ccc(CNC(=O)Nc2cn(CC(C)C)c(=O)c3ccccc23)c(OC)c1 | inconclusive: 25.1 µM [inhibitor, partial curve, poor fit] | 
13 | CC(C)(C(=O)O)c1cnc(N2CC[C@@H](O)C2)nc1N1CCOCC1 | inconclusive: 28.2 µM [inhibitor, single point] | 
14 | O=C(NCc1ccc(N2CCOCC2)cc1)c1cc[nH]c1C1CCCNC1 (stereo unspecified) | inconclusive: 20 µM [inhibitor, partial curve, poor fit] | 
15 | O=C(N[C@H]1CO[C@H]2[C@@H]1OC[C@@H]2n1nnnc1Oc1ccccc1)c1cncnc1 | inconclusive: 28.2 µM [inhibitor, partial curve, poor fit] | 
16 | O=C1CC(c2ccc(C(F)(F)F)cc2)c2sc(C(=O)O)c(-c3ccccc3)c2N1 (stereo unspecified) | inactive | 
17 | Cc1ccc(S(=O)(=O)Cn2nnnc2C(CC(C)C)N2CCN(C3CCCC3)CC2)cc1 (stereo unspecified) | inconclusive: 25.1 µM [inhibitor, partial curve, poor fit] | 
18 | COc1cccc(C(=O)Oc2ccc(C)cc2C(=O)/C=C/c2ccc(F)cc2)c1 | inactive | 
19 | O=C(NC1CC1)C1CCCN(C(=O)c2ccc3cc[nH]c3c2)C1 (stereo unspecified) | inactive | 
20 | COCc1cc(=O)n(CC(=O)Nc2ccc(F)c(Cl)c2)c(N2CCOCC2)n1 | inconclusive: 12.6 µM [inhibitor, partial curve] | 
21 | CC(C)(C)CC(=O)OCc1cc(=O)oc2cc(O)ccc12 | inconclusive: 22.4 µM [inhibitor, partial curve, poor fit] | 
22 | Clc1ccccc1-c1nc(Nc2ccccc2)nc2ccc(Br)cc12 | inconclusive: 1.58 µM [inhibitor, partial curve, poor fit] | 

Row | Structure (SMILES) | Potency | activity change, negative = inhibition
23 | CCOc1ccc(NC(=O)CSc2ncc3c(n2)-c2ccccc2N(C)S3(=O)=O)cc1 | inconclusive: 25.1 µM [inhibitor, partial curve, poor fit] | 
24 | Cc1ccc(-n2c(=O)c3sc4ccccc4c3n(C)c2=O)cc1F | inconclusive: 0.794 µM [inhibitor, full curve, poor fit] | 
25 | C=CCN(C)C(=O)C[C@@H]1c2nc(NC(=O)c3cccs3)sc2C[C@@H]2[C@](C)(CO)[C@H](O)CC[C@]21C | inconclusive: 31.6 µM [inhibitor, partial curve, poor fit] | 
26 | N#C/C(=C/c1cccc(O)c1)C(=O)c1c[nH]c2cc(F)ccc12 | inconclusive: 39.8 µM [inhibitor, partial curve, poor fit] | 
27 | Cn1ccc(NC(=O)c2ccc(-c3ncc4cnc(-c5ccccc5)cn34)cc2)n1 | active: 7.94 µM | 
28 | CCCCn1c(C)c(C)c(-c2nc3ccccc3[nH]2)c1NC(=O)C(C)C | inconclusive: 31.6 µM [inhibitor, single point] | 
29 | CC(C)n1cc2cc(C(=O)N3CCN(Cc4ccc5c(c4)OCO5)CC3)sc2c1 | inconclusive: 6.31 µM [inhibitor, partial curve] | 
30 | COCCN1C(=O)c2n[nH]c(-c3ccco3)c2C1c1ccccc1 (stereo unspecified) | inconclusive: 39.8 µM [inhibitor, single point] | 
31 | Cc1cc2nc(CSc3nc4ccc(NC(=O)c5ccccc5)cc4s3)cc(=O)n2o1 | inconclusive: 39.8 µM [inhibitor, single point] | 
32 | CC(C)(Cc1ccc(F)cc1)NC(=O)CC1C(=O)NCCN1Cc1ccoc1 (stereo unspecified) | inconclusive: 14.1 µM [inhibitor, partial curve, poor fit] | 
33 | O=c1cc(-c2ccccc2)c2ccc(OCc3ccccc3)cc2o1 | inconclusive: 28.2 µM [inhibitor, partial curve, poor fit] | 
34 | Cc1nc(-c2ccc(S(=O)(=O)Oc3ccc(Cl)cc3Cl)s2)cs1 | inconclusive: 28.2 µM [inhibitor, partial curve, poor fit] | 
35 | COc1ccc2[nH]c(=O)c(CCC(=O)NCCCN3CCCCC3C)cc2c1 (stereo unspecified) | active: 28.2 µM | 
36 | CCN1c2cc(C(=O)NCc3cc(OC)ccc3OC)ccc2C(=O)N2CCCCC21 (stereo unspecified) | inconclusive: 15.8 µM [inhibitor, partial curve, poor fit] | 
37 | Nc1nccnc1C(=O)NCC(O)c1cccc(Cl)c1 (stereo unspecified) | inconclusive: 25.1 µM [inhibitor, partial curve, poor fit] | 
38 | CC(=O)N1CCC2(CC1)Oc1ccc(Br)cc1C1CC(c3ccc(Cl)cc3)=NN12 (stereo unspecified) | inconclusive: 39.8 µM [inhibitor, single point] | 
39 | CCOC(=O)c1oc2ccccc2c1COC(=O)CNC(=O)c1ccc2c(c1)OCO2 | inactive | 
40 | COc1ccc2cc(C(=O)c3cc4ccc(OC)cc4oc3=O)c(=O)oc2c1 | inactive | 
41 | O=C(C1CCCC1)N1CCC2(CC1)NC(=O)N(c1ccccc1)N2 | inconclusive: 15.8 µM [inhibitor, partial curve] | 
42 | CCN(CC)Cc1ccc(CNC(=O)/C=C/c2cccs2)cc1 | inactive | 
43 | NC(=O)Nc1ccc(Cl)c(NS(=O)(=O)c2ccccc2Br)c1 | inactive | 
44 | O=C(CSc1nc2nccnc2c(=O)n1CCc1c[nH]c2ccccc12)Nc1ccccc1 |  | inconclusive: -33.8% [inhibitor]

Row | Structure (SMILES) | Potency | activity change, negative = inhibition
45 | Cc1cccc(C)c1-c1nc(C(=O)NC(C)C)n2ccccc12 | inconclusive: 35.5 µM [inhibitor, partial curve, poor fit] | 
46 | CC(C)(C)NC(=O)c1cc(F)ccc1I | inactive | 
47 | COCCN1CC(CO)C2(CCN(Cc3ccc(Cl)cc3F)CC2)C1 (stereo unspecified) | inconclusive: 20 µM [inhibitor, partial curve, poor fit] | 
48 | COc1ccccc1CN1CCN(Cc2nc(-c3cccs3)no2)CC1 | inactive | 
49 | CCN1CCN(CC(=O)NCc2cc(N3CCOCC3)ncn2)CC1 | inactive | 
50 | O=C1COc2ccc(-c3ccc(F)c(Cl)c3)nc2CN1Cc1nc2ccccc2s1 | inconclusive: 35.5 µM [inhibitor, partial curve, poor fit] | 
51 | CCC(=O)N1c2ccc(S(=O)(=O)CCC(=O)N3CCN(c4cc(C)ccc4C)CC3)cc2CC1C (stereo unspecified) |  | inconclusive: -35% [inhibitor]
52 | CCC(=O)Nc1ccc(/C(C)=N/O)cc1 | inactive | 
53 | COc1ccc(C(CNC(=O)c2ccc(F)cc2)N2CCCC2)cc1 (stereo unspecified) |  | inconclusive: -30.3% [inhibitor]
54 | Cn1c(=O)c2c(nc(SCC(=O)Nc3ccc(F)cc3)n2Cc2ccccc2F)n(C)c1=O | inconclusive: 1.12 µM [inhibitor, full curve, poor fit] | 
55 | Cc1ccccc1C(=O)Nc1ccc2oc(-c3ccccc3C)cc(=O)c2c1 | inactive | 
56 | O=S(=O)(c1ccc(Br)cc1)N1CCN(c2ccc(Nc3ccccc3)nn2)CC1 | inactive | 
57 | CCOc1ccc(CCNC(=O)CCc2c(C)nn(C)c2C)cc1OCC | inactive | 
58 | CN1CCc2c(C#N)c(N3CCOCC3)nc(NCC3CCCO3)c2C1 (stereo unspecified) | inconclusive: 17.8 µM [inhibitor, single point] | 
59 | CCS(=O)(=O)N1CCc2cc(C(=O)N3CCN(c4ccccc4OC)CC3)ccc21 | inconclusive: 1.58 µM [inhibitor, partial curve, poor fit] | 
60 | CC(C)c1ccc(CNC(=O)c2noc(-c3ccc4c(c3)OCO4)n2)cc1 | active: 25.1 µM | 
61 | CCCC(C)Nc1ncnc2c1CN(C1CCCNCC1)C(=O)CN2C (stereo unspecified) | inconclusive: 35.5 µM [inhibitor, partial curve] | 
62 | N#Cc1nc(Cc2ccccc2)oc1NCc1ccc(Cl)cc1 | inconclusive: 39.8 µM [inhibitor, single point] | 
63 | Cc1cccc(OC[C@H]2C[C@@H](N)[C@H](O)[C@@H]2O)n1 | inconclusive: 35.5 µM [inhibitor, partial curve, poor fit] | 
64 | COCCn1c(=O)c2c(n1Cc1ccccc1)CN(Cc1cncc(OC)c1)CC2 | inconclusive: 39.8 µM [inhibitor, partial curve, poor fit] | 
65 | Cc1ccc(C(=O)C(Cl)C(=O)c2ccc(C)cc2)cc1 | inconclusive: 20 µM [inhibitor, partial curve, poor fit] | 
66 | O=C(Cc1cccs1)Nc1c(C(=O)Nc2ccc(F)cc2)oc2ccccc12 | inconclusive: 44.7 µM [inhibitor, single point] | 
